# Data as given in the supplement of paper PMC3334620.
# The full ranking holds about 33,000 sequences; the median of “E-score (-0.5 to 0.5)” is about -0.01, and the highest 2% start at about 0.26. This is one part of the list.
# Molecular target: Ste12 (UniProt P13574)
# Experiment: PBM E-score (8-mer binding enrichment) (E-score (-0.5 to 0.5)); higher = stronger / more preferred TF binding; most listed sequences are background and not binding sites
# Conditions: protein concentration: 200 nM; construct: GST-DNA-binding domain
# Method in brief: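 Yeast transcription factors, full-length or as DNA-binding domains, were expressed with a GST tag using PURExpress in vitro transcription/translation. At about 100-200 nM they were applied to universal all-10-mer Agilent arrays, double-stranded by primer extension on fresh or once-stripped slides. Fluorescent anti-GST detected bound protein, and masliner normalised the scans. E-scores for ungapped eight-base words, pooled with reverse complements, came from the Universal PBM Analysis Suite.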
row,Sequence,PBM E-score
1,ACTATATG,-0.0612
2,TTAGTGAA,0.191
3,AGAATCGG,-0.109
4,CAAGGCCC,-0.154
5,ATGTAGCA,0.0638
6,TAAAGTCA,0.241
7,TACCAGGA,0.0462
8,AACCTCAG,-0.146
9,AAGCAAGG,-0.131
10,ATCCGATG,0.277
11,ATCGGTGG,-0.0711
12,GGGGGCAC,-0.14
13,GATCTGGC,-0.0208
14,CAGAGCAC,0.0445
15,CGCACGCG,-0.104
16,GAATGGGC,0.152
17,ACTAAAGG,-0.0901
18,ATTCACAA,0.131
19,CCCCTTCC,-0.0135
20,AGTGAACT,-0.00261
21,GTCCCCTA,-0.0692
22,CATACGAA,-0.0391
23,CTTCCCGC,0.0526
24,GAGTTGAA,0.0969
25,AATAAATC,0.086

row,Sequence,PBM E-score
1,CCTAATCC,-0.116
2,AAAAGGCG,0.00864
3,GATAAGGC,0.0186
4,CGAAGGCC,-0.229
5,AGAGCGGG,-0.0296
6,AACTGGCT,-0.208
7,AGGGCCCA,-0.148
8,ACCCATCA,0.0516
9,GCGTATCC,-0.115
10,CAAGTGTG,-0.056
11,AAGGGGCT,-0.111
12,GTGCTTGA,-0.169
13,CCCACGCG,-0.0503
14,CGAACACG,-0.0926
15,ACCCATTA,0.0332
16,CGGTACGA,-0.0822
17,GGCTTGGA,-0.192
18,CCGATGCG,-0.0377
19,GGTGACCA,-0.16
20,AGTCGTAT,-0.124
21,CGACCCTA,-0.0581
22,CTTAAATA,0.198
23,GCCAGTTA,-0.0858
24,GGCGGACA,0.0615
25,ACTCCCCG,0.07

row,Sequence,PBM E-score
1,AATTGCCG,-0.136
2,CGCGTTTA,0.113
3,AAGGAGAC,-0.176
4,CATGGGAA,-0.0149
5,ATGTACGG,-0.0427
6,CTTGTGGA,0.115
7,AGGTAGCA,-0.255
8,GGTAATAA,0.165
9,AGCAATAT,-0.0848
10,AGAGTCAA,-0.115
11,CTAATTAC,-0.0517
12,CGAAGCCG,-0.157
13,ACATGCTA,-0.215
14,CGACGTCG,0.0287
15,GACAGAGA,-0.0566
16,GATTATCA,-0.00605
17,AGTTGGCG,0.012
18,GATGGTAA,0.0297
19,GAGTTAGA,-0.0281
20,AATAAAAA,0.229
21,CGAAGTCG,0.0297
22,ACCATAGG,0.00547
23,CACTTCAA,0.052
24,AATGATAC,0.278
25,CGAGTACC,-0.113

row,Sequence,PBM E-score
1,AGGCGCAC,0.0196
2,ATACTGTA,0.0896
3,CATTTGCC,-0.194
4,GACGTCTA,-0.0324
5,ACAACCGG,0.0456
6,TTCTGAAA,0.365
7,CGGTCAGC,0.114
8,AAATTAGC,0.123
9,CACCTCCC,-0.0665
10,GCCGAGCA,-0.148
11,GTATATCA,0.0869
12,AAAGAGGA,-0.0896
13,AAACAACT,0.174
14,AGAAGGGA,-0.264
15,GGAGGTTA,-0.16
16,ACGGCCGC,0.00686
17,GGAAGGGA,-0.106
18,CCGGACGG,-0.196
19,CTCTAGGC,-0.0144
20,GGAGACCA,-0.0241
21,CTGCGTGC,-0.111
22,CCCTGCTC,-0.175
23,CTTTACCC,0.0427
24,AGGGTGAA,0.0851
25,CATATTCA,0.164

row,Sequence,PBM E-score
1,CGGCATGA,0.0694
2,CCTGAAAC,0.487
3,CACTGATC,-0.0665
4,CGCCCTTA,-0.0507
5,CCGGTCAC,-0.0251
6,AGAAACTC,0.0266
7,CTCAACTC,0.141
8,ACCGCGTA,0.0507
9,AACGATCT,0.153
10,ATACAGGA,0.0595
11,GCTACTCA,-0.229
12,AGCGCACT,-0.226
13,ACCATCGG,-0.117
14,CCAACGGA,0.0256
15,AGCGCGCC,-0.0363
16,GCGTACTA,-0.316
17,ATGAGCAA,0.104
18,AAGACGAT,-0.0053
19,ACAAGTGA,-0.128
20,CGAAGTGA,-0.00239
21,GACACCCC,-0.0426
22,AGGACAGC,-0.181
23,CACTAACC,-0.19
24,GCATAGAC,-0.152
25,AGAAACAT,0.32

row,Sequence,PBM E-score
1,ACGTTCGG,-0.101
2,GCACGAGC,-0.139
3,GCTCCGCC,0.0389
4,ACTGTTAG,-0.105
5,AGTCTACC,-0.294
6,AGGGACCA,-0.0899
7,CAACAGAA,-0.019
8,ATTAGAAG,0.105
9,GATGGTTA,-0.0584
10,CAGACAAG,-0.101
11,AAATCGAA,0.256
12,CCAGGAGG,-0.154
13,CAGGCCAG,-0.0417
14,AGGTTGCA,0.0266
15,ATCCGAGG,0.0546
16,ATGCGAAG,-0.0618
17,CCAAAATA,0.21
18,TCCCCCGA,-0.0459
19,CATGTCAC,0.182
20,ATACTGAG,0.188
21,AATCGATG,0.065
22,AAAGGTAC,-0.0157
23,GGCGCCCA,-0.121
24,CTGGTGGA,-0.159
25,AAATCATG,0.239

row,Sequence,PBM E-score
1,CCGTAAAG,0.0165
2,CGCCGAGC,-0.0954
3,CCTTGTGC,-0.0236
4,TGCCCCAA,0.0853
5,CGTAGACA,-0.269
6,GAGGTTAC,0.048
7,GAAAATAC,0.203
8,GGAGCCCC,-0.232
9,CAAAGAGC,-0.0793
10,CTTTTCAA,0.221
11,ATTCAGCA,0.0048
12,CAAATACG,0.00305
13,CGGGGTTC,0.0438
14,AACGAATG,0.0894
15,CAGTATAC,-0.00596
16,AAAGGGAA,0.0362
17,GGGGGAAA,0.241
18,CTAAATGC,0.0198
19,CAAGAAAA,0.24
20,TACCCGCA,0.132
21,CAATGGAG,-0.164
22,AGTCACCG,-0.096
